# Laboratory results: PubChem BioAssay AID1347165 (National Center for Advancing Translational Sciences (NCATS), 2019)
# Screen size: about 220,000 compounds; about 5,700 (2.6%) were called active. The shares of active, inactive and inconclusive entries below differ from those in the screen. Calls follow the shape of the dose curve; as a rule, active = well fitted inhibition curve with a large enough effect; inconclusive = small, poorly fitted or top-dose-only effect; inactive = no such curve, though single readings can be large or run the other way. Where the call is inconclusive, the potency comes from a doubtful curve fit.
# Biological target: Lysine-specific demethylase 5B (Homo sapiens) (UniProt Q9UGL1)
# UniProt Q9UGL1, sequence (Q9UGL1 whole entry, looked up): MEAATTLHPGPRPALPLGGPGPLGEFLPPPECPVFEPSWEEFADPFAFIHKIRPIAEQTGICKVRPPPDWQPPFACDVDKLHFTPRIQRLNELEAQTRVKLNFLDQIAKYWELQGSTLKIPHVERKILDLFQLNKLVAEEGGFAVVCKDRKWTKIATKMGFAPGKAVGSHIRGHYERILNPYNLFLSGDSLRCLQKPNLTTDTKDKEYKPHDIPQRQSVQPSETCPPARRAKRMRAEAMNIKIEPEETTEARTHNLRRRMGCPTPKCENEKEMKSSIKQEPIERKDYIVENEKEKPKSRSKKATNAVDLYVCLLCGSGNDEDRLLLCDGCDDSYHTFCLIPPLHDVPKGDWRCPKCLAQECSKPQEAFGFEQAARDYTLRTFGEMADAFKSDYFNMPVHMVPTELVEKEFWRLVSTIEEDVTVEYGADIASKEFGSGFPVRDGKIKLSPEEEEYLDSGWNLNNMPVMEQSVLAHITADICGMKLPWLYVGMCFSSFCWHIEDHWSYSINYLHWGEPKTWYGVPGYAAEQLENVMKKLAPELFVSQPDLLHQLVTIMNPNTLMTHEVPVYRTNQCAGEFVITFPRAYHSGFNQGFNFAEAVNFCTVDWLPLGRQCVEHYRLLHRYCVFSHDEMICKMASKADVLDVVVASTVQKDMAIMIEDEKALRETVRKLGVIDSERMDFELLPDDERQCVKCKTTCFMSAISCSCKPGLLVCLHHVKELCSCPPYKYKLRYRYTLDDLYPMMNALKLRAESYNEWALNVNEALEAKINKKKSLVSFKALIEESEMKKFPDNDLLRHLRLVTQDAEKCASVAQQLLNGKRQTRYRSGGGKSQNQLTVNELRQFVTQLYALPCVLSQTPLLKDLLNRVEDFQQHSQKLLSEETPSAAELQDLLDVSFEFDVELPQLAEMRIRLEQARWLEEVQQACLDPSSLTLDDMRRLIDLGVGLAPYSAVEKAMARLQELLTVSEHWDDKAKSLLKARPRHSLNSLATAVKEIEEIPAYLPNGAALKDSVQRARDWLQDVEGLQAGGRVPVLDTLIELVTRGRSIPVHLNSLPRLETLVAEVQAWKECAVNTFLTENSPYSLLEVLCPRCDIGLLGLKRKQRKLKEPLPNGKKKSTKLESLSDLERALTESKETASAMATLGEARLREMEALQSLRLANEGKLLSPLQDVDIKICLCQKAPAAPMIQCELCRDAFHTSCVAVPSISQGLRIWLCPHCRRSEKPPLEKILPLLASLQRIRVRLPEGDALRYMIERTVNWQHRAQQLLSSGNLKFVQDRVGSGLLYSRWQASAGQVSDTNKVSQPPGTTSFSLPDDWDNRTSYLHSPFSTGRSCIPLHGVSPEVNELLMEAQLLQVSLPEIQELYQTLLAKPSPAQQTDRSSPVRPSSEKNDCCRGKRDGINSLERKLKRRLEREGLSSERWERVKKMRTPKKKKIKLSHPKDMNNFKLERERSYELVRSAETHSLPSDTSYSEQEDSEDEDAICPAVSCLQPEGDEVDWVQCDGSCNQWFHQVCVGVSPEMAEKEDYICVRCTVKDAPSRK
# Experiment: Primary screen for KDM5B Histone Demethylases FDH-coupled qHTS; also: nearly all actives have a fitted effect of over 70% in size
# Conditions: FDH-coupled NADH fluorescence (FDH is formaldehyde dehydrogenase); series mostly up to 57.7 µM
# Summary of the method: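 Compound dilutions met 200 nM (final) KDM5BΔAP for 10 min at room temperature before substrate addition. The substrate mix held 12.5 µM H3K4me3 with cofactors 25 µM α-ketoglutarate and 50 µM Fe²⁺. NADH signal gain over 30 min defined activity.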
# Potency is read from the fitted curve at half-maximal effect; tags tell the direction and shape of the fitted curve.
row,Structure (SMILES),Potency
1,CCOC(=O)Cc1ccc(NC(=O)N2CCC(CN3CCCCCC3)CC2)cc1,"inconclusive: 28.2 µM [inhibitor, partial curve, poor fit]"
2,COCc1cc(=O)n(CC(=O)Nc2ccccc2C)c(N2CCOCC2)n1,"inconclusive: 17.8 µM [inhibitor, single point]"
3,O=C(NNC(=O)C1CCOC1)c1cccc([N+](=O)[O-])c1 (centres undefined),inactive
4,CCCCN(CC)C(=O)c1cc2c(=O)n3cccc(C)c3nc2n1C,"inconclusive: 31.6 µM [inhibitor, partial curve, poor fit]"
5,Cc1ccc(Nc2nc(-c3cccnc3)nc3ccccc23)cc1C,"inconclusive: 28.2 µM [inhibitor, single point]"
6,Cc1ccc(NC(=O)CN2CCSc3ccc(S(=O)(=O)N4CCCC4)cc32)cc1,"inconclusive: 25.1 µM [inhibitor, partial curve, poor fit]"
7,O=C(Cn1cnc2nc(N3CCOCC3)sc2c1=O)Nc1ccccc1,inactive
8,Cn1nccc1CN1CCC2(CC1)CC(=O)c1ccc(Cl)cc1O2,inactive
9,Cn1cc(-c2cc(-c3cccnc3)c3cncn3c2)cn1,"inconclusive: 31.6 µM [inhibitor, partial curve, poor fit]"
10,COc1ccc(CCNC(=O)c2ccc3c(c2)N(Cc2ccc(Cl)cc2)C(=O)c2ccccc2S3)cc1OC,"inconclusive: 6.31 µM [inhibitor, partial curve, poor fit]"
11,COc1ccc(-n2nc3n(c2=O)CCN(Cc2ccccc2)C3)cc1,inactive
12,O=C(NCc1ccncc1)[C@@H]1C[C@@H](c2ccc(F)cc2)N([S+](=O)([O-])c2cccnc2)C1,"inconclusive: 35.5 µM [inhibitor, partial curve, poor fit]"
13,CN(C)c1cc(=O)c2ccnc(Nc3ccccn3)c2o1,"inconclusive: 31.6 µM [inhibitor, partial curve]"
14,CCOc1ccc(NC(=O)c2ccc3c(c2)N(CC)C2CCCCN2C3=O)cc1 (centres undefined),"inconclusive: 22.4 µM [inhibitor, partial curve, poor fit]"
15,Cc1ccccc1Nc1c(-c2ccc(Br)o2)nc2ccc(Cl)cn12,"inconclusive: 28.2 µM [inhibitor, partial curve, poor fit]"
16,Cc1cc(C)c(CNC(=O)c2nc(-c3cccc(N4CCOCC4)c3)cc3[nH]ccc23)c(=O)[nH]1,"inconclusive: 31.6 µM [inhibitor, single point]"
17,Cc1c(C)c2ccc(OCC(=O)NCCCn3ccnc3)c(C)c2oc1=O,"inconclusive: 25.1 µM [inhibitor, partial curve, poor fit]"
18,COc1ccc(C(=O)N/N=C/c2ccc(OC)c(COc3c(F)c(F)cc(F)c3F)c2)cc1,"inconclusive: 35.5 µM [inhibitor, partial curve, poor fit]"
19,CNC(=O)C1(C)CN(Cc2ccccc2)Cc2ccc(NCC(C)C)nc21 (centres undefined),"inconclusive: 35.5 µM [inhibitor, partial curve, poor fit]"
20,Cc1ccc(OC2(C(=O)N(C)Cc3n[nH]c4c3CCCC4)CCNCC2)cc1,"inconclusive: 20 µM [inhibitor, partial curve, poor fit]"

row,Structure (SMILES),Potency
1,CCn1c(/C(C#N)=C/c2ccccc2Cl)nc2ccccc21,"inconclusive: 28.2 µM [inhibitor, partial curve, poor fit]"
2,CCc1cccc(NC(=O)CSc2nc3ccsc3c(=O)n2CC)c1,"inconclusive: 35.5 µM [inhibitor, single point]"
3,CCOC(=O)C(=CNc1nc2ccc(C(=O)OCC)cc2s1)C(=O)OCC,"inconclusive: 31.6 µM [inhibitor, partial curve, poor fit]"
4,O=C(Nc1ccccc1-n1cncn1)C1CC(=O)N(c2ccccc2Br)C1 (centres undefined),inactive
5,COc1ccc(CCc2nc3nccc(-c4ccc5c(c4)OCCCO5)n3n2)cc1OC,"inconclusive: 15.8 µM [inhibitor, partial curve, poor fit]"
6,COc1ccc(-c2nn3c(=O)cc(CNC(=O)c4cc(OC)c(OC)c(OC)c4)nc3s2)cc1,"inconclusive: 25.1 µM [inhibitor, partial curve, poor fit]"
7,Cn1ncc2c(C(=O)NC3CC3)cc(-c3cc(Cl)cc(Cl)c3)nc21,inactive
8,CCOc1ccc(C(=O)N2CCCN(c3cc(-c4ccc(F)cc4)[nH]n3)CC2)cc1,inactive
9,COc1ccc(Nc2c3c(nc4ccc(NC(=O)/C=C/c5cccc(OC)c5OC)cc24)CCCC3)cc1OC,"inconclusive: 12.6 µM [inhibitor, partial curve, poor fit]"
10,Cc1ccc2nc(-c3ccc(NC(=O)CN4CCN(c5ccccn5)CC4)cc3)sc2c1,"inconclusive: 25.1 µM [inhibitor, partial curve, poor fit]"
11,CCOP(=O)(OCC)c1nc(-c2ccc(C)cc2)oc1N1CCOCC1,"inconclusive: 25.1 µM [inhibitor, partial curve, poor fit]"
12,CCC(Oc1ccccc1)C(=O)Nc1ccc(OCc2cc(=O)n3ccccc3n2)cc1 (centres undefined),inactive
13,C=CCNC(=O)N[C@H]1CCN2C(=O)c3ccccc3NC(=O)[C@@H]2C1,"inconclusive: 35.5 µM [inhibitor, partial curve, poor fit]"
14,COC(=O)c1ccccc1NC(=O)c1ccc2c(=O)n3c(nc2c1)CCCCC3,"inconclusive: 35.5 µM [inhibitor, single point]"
15,CCC(=O)N1N=C(c2ccc(F)cc2)CC1c1ccc2nccnc2c1 (centres undefined),inactive
16,Cc1cccc(CNC(=O)c2c(C)noc2-c2ccc(C(C)(C)C)cc2)c1,"inconclusive: 39.8 µM [inhibitor, single point]"
17,COc1ncccc1Nc1cnc2ccc(N3CCOCC3)nn12,"inconclusive: 35.5 µM [inhibitor, single point]"
18,Cc1ccc(-c2nc3ccccc3[nH]c2=O)cc1,"inconclusive: 39.8 µM [inhibitor, partial curve, poor fit]"
19,COc1ccc2cc(C(=O)NC3CCN(C(=O)N4CC5CC(C4)[C@H]4CCCC(=O)N4C5)CC3)[nH]c2c1 (some centres undefined),active: 28.2 µM
